From the supplement of paper PMC8728848
The list shows a part of the results.

What was measured:
Assay in all cases: glycan array binding signal (z-score within array); higher = stronger binding
Conditions in all cases: glycan notation: IUPAC condensed, linker removed
GlcNAc(b1-3)Man = molecular target: GlcNAc(b1-3)Man
In short: (§1)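 Glycan array binding is given as a within-array Z-score, which can be read as non-binding when negative. The arrays, 3228 of them, came from the Consortium for Functional Glycomics database and were retained only where the protein sequence was available. Z-scores were averaged across arrays of the same protein sequence at different concentrations or buffers and across linkers.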

[1] = molecular target: GlcNAc(b1-3)[GlcNAc(b1-4)][GlcNAc(b1-6)]GlcNAc
In short: as §1

[2] = molecular target: GlcNAc(b1-3)[GlcNAc(b1-6)]Gal(b1-4)GlcNAc
In short: as §1

[3] = molecular target: GlcNAc(b1-3)[GlcNAc(b1-6)]GalNAc
In short: as §1

[4] = molecular target: GlcNAc(b1-4)Gal(b1-4)GlcNAc
In short: as §1

GlcNAc(b1-4)GlcNAc = molecular target: GlcNAc(b1-4)GlcNAc
In short: as §1

[5] = molecular target: GlcNAc(b1-4)GlcNAc(b1-4)GlcNAc
In short: as §1

[6] = molecular target: GlcNAc(b1-4)GlcNAc(b1-4)GlcNAc(b1-4)GlcNAc(b1-4)GlcNAc
In short: as §1

[7] = molecular target: GlcNAc(b1-4)GlcNAc(b1-4)GlcNAc(b1-4)GlcNAc(b1-4)GlcNAc(b1-4)GlcNAc
In short: as §1

[8] = molecular target: GlcNAc(b1-4)[GlcNAc(b1-6)]GalNAc
In short: as §1

[9] = molecular target: GlcNAc(b1-6)Gal(b1-4)GlcNAc
In short: as §1

GlcNAc(b1-6)GalNAc = molecular target: GlcNAc(b1-6)GalNAc
In short: as §1

[10] = molecular target: GlcNAc6S(b1-3)Gal(b1-4)GlcNAc
In short: as §1

Kdn(a2-3)Gal(b1-3)GalNAc = molecular target: Kdn(a2-3)Gal(b1-3)GalNAc
In short: as §1

Kdn(a2-3)Gal(b1-3)GlcNAc = molecular target: Kdn(a2-3)Gal(b1-3)GlcNAc
In short: as §1

Kdn(a2-3)Gal(b1-4)Glc = molecular target: Kdn(a2-3)Gal(b1-4)Glc
In short: as §1

Kdn(a2-3)Gal(b1-4)GlcNAc = molecular target: Kdn(a2-3)Gal(b1-4)GlcNAc
In short: as §1

[11] = molecular target: Kdn(a2-3)Gal(b1-4)[Fuc(a1-3)]GlcNAc
In short: as §1

Kdn(a2-6)Gal(b1-4)GlcNAc = molecular target: Kdn(a2-6)Gal(b1-4)GlcNAc
In short: as §1

[12] = molecular target: Man(a1-2)Man(a1-2)Man(a1-3)Man
In short: as §1

[13] = molecular target: Man(a1-2)Man(a1-2)Man(a1-6)[Man(a1-3)]Man
In short: as §1

Man(a1-2)Man(a1-3)Man = molecular target: Man(a1-2)Man(a1-3)Man
In short: as §1

[14] = molecular target: Man(a1-2)Man(a1-3)[Man(a1-2)Man(a1-6)]Man
In short: as §1

[15] = molecular target: Man(a1-2)Man(a1-3)[Man(a1-2)Man(a1-6)]Man(a1-6)[Man(a1-2)Man(a1-2)Man(a1-3)]Man
In short: as §1

[16] = molecular target: Man(a1-2)Man(a1-3)[Man(a1-2)Man(a1-6)]Man(a1-6)[Man(a1-2)Man(a1-2)Man(a1-3)]Man(b1-4)GlcNAc(b1-4)GlcNAc
In short: as §1

[17] = molecular target: Man(a1-2)Man(a1-3)[Man(a1-6)]Man(a1-6)[Man(a1-2)Man(a1-3)]Man(b1-4)GlcNAc(b1-4)GlcNAc
In short: as §1

[18] = molecular target: Man(a1-2)Man(a1-6)[Man(a1-3)]Man(a1-6)[Man(a1-2)Man(a1-2)Man(a1-3)]Man
In short: as §1

[19] = molecular target: Man(a1-2)Man(a1-6)[Man(a1-3)]Man(a1-6)[Man(a1-2)Man(a1-2)Man(a1-3)]Man(b1-4)GlcNAc(b1-4)GlcNAc
In short: as §1

Man(a1-3)[Man(a1-6)]Man = molecular target: Man(a1-3)[Man(a1-6)]Man
In short: as §1

[20] = molecular target: Man(a1-3)[Man(a1-6)]Man(a1-6)[Man(a1-2)Man(a1-3)]Man(b1-4)GlcNAc(b1-4)GlcNAc
In short: as §1

[21] = molecular target: Man(a1-3)[Man(a1-6)]Man(a1-6)[Man(a1-3)]Man
In short: as §1

[22] = molecular target: Man(a1-3)[Man(a1-6)]Man(a1-6)[Man(a1-3)]Man(b1-4)GlcNAc(b1-4)GlcNAc
In short: as §1

[23] = molecular target: Man(a1-3)[Man(a1-6)]Man(b1-4)GlcNAc(b1-4)GlcNAc
In short: as §1

[24] = molecular target: Man(a1-3)[Man(a1-6)]Man(b1-4)GlcNAc(b1-4)[Fuc(a1-6)]GlcNAc
In short: as §1

Man(a1-6)Man = molecular target: Man(a1-6)Man
In short: as §1

Man(b1-4)GlcNAc = molecular target: Man(b1-4)GlcNAc
In short: as §1

MurNAc(b1-4)GlcNAc = molecular target: MurNAc(b1-4)GlcNAc
In short: as §1

Neu5Ac(a2-3)Gal = molecular target: Neu5Ac(a2-3)Gal
In short: as §1

B1: PX9961J-bvu-499-24-499 (Bacteroides vulgatus) (protein)
chain: LNTDPSTAVPSDDAIKNIDDAQVALNGIYRLASAHSYYGDNYLYYADCRGEDVQARINKGAGRRVSPYYFFDVTADDNFNITLVWNQPYKVIHQANSLIEKLDAGNAGNARPEEVARIKSEALAMRGLALFDLTRLFGMPYTLDNGASLGVPIEIQTTLEDHAPERNTVAQCYEQVLKDLNDALGGLTKEKHDAYMNYWSVKALLSRVYLYMNDNENALKCAEEVINDNGGIYRLFTHDEYPSVWGKDFNSESLFEFYFTMSEPSGGSGGEGAPMVYADNVKDWNNLILTKAYLDLLNEDPEDVRHVFPHLPENAVADTLPVAAKGQPKYLIKYPGKSGSVTDAVSTVNPQDNDLCILRLSEVYLNAAEAAFKIGNTEKALTYLNAIVTRANPAKSVTSADLSLERILKERRKELVGEGHAFFDYMRNGKSVDRSGGWHLTMPEDARVIAPSDPRVALPIPQTEIDANPNIVQNPR
glycan array binding signal (z-score) (GlcNAc(b1-3)Man): -0.663 | glycan array binding signal (z-score) [1]: 1.04 | glycan array binding signal (z-score) [2]: 0.347 | glycan array binding signal (z-score) [3]: -0.107 | glycan array binding signal (z-score) [4]: -0.654 | glycan array binding signal (z-score) (GlcNAc(b1-4)GlcNAc): -0.334 | glycan array binding signal (z-score) [5]: -0.56 | glycan array binding signal (z-score) [6]: -0.798 | glycan array binding signal (z-score) [7]: -0.457 | glycan array binding signal (z-score) [8]: 0.069 | glycan array binding signal (z-score) [9]: -0.638 | glycan array binding signal (z-score) (GlcNAc(b1-6)GalNAc): -0.396 | glycan array binding signal (z-score) [10]: 0.557 | glycan array binding signal (z-score) (Kdn(a2-3)Gal(b1-3)GalNAc): -0.431 | glycan array binding signal (z-score) (Kdn(a2-3)Gal(b1-3)GlcNAc): -0.688 | glycan array binding signal (z-score) (Kdn(a2-3)Gal(b1-4)Glc): -0.405 | glycan array binding signal (z-score) (Kdn(a2-3)Gal(b1-4)GlcNAc): -0.232 | glycan array binding signal (z-score) [11]: -0.119 | glycan array binding signal (z-score) (Kdn(a2-6)Gal(b1-4)GlcNAc): 0.625 | glycan array binding signal (z-score) [12]: -0.579 | glycan array binding signal (z-score) [13]: 0.386 | glycan array binding signal (z-score) (Man(a1-2)Man(a1-3)Man): -0.194 | glycan array binding signal (z-score) [14]: -0.206 | glycan array binding signal (z-score) [15]: -0.302 | glycan array binding signal (z-score) [16]: 0.022 | glycan array binding signal (z-score) [17]: -1.02 | glycan array binding signal (z-score) [18]: -0.372 | glycan array binding signal (z-score) [19]: -0.359 | glycan array binding signal (z-score) (Man(a1-3)[Man(a1-6)]Man): -0.77 | glycan array binding signal (z-score) [20]: -0.012 | glycan array binding signal (z-score) [21]: 0.83 | glycan array binding signal (z-score) [22]: -0.181 | glycan array binding signal (z-score) [23]: -0.104 | glycan array binding signal (z-score) [24]: -0.418 | glycan array binding signal (z-score) (Man(a1-6)Man): -0.426 | glycan array binding signal (z-score) (Man(b1-4)GlcNAc): 0.396 | glycan array binding signal (z-score) (MurNAc(b1-4)GlcNAc): -0.701 | glycan array binding signal (z-score) (Neu5Ac(a2-3)Gal): -0.446
